In PubChem BioAssay AID463173 (ICCB-Longwood Screening Facility, Harvard Medical School, 2010):
The campaign covered roughly 52,000 compounds. About 4,300 (8.3%) were called active. Rule as the data show it: active = survival mostly below about 52% (no sharp cut-off); inactive = mostly above about 56%. Some of the results follow.

test system: DeltatarO mutant; assay: S. aureus survival, RN4220 and DeltatarO strains – OD600, teichoic acid synthesis inhibitors, primary screen (AID 463173); conditions: S. aureus RN4220 wild type/DeltatarO growth, OD600, 18 h, stronger effect = lower value, screened at 18.75 µg/mL (by protocol)

Row | SMILES | survival
1 | Cc1ccc(NC(=O)C(=O)NCC(c2cccnc2)N2CCN(Cc3ccccc3)CC2)cc1Cl (stereo not drawn) | inactive: 72%
2 | COc1cc(OC)c(NC(=O)Nc2ccc3c(c2)N(C)C(=O)c2ccccc2S3)cc1Cl | inactive: 98%
3 | Cc1ccc(-c2onc(C)c2C)cc1S(=O)(=O)N1CCN(c2ccccc2F)CC1 | inactive: 80%
4 | C=CCNC(=O)c1cc2n(n1)C(C(F)(F)F)CC(c1ccco1)N2 (stereo not drawn) | inactive: 80%
5 | COc1cc(OC)cc(-n2c(=O)c3sccc3n(Cc3ccc(F)cc3)c2=O)c1 | inactive: 160%
6 | COc1cc(C(CC(=O)NCc2ccccc2Cl)N2Cc3ccccc3C2=O)cc(OC)c1OC (stereo not drawn) | inactive: 73%
7 | COc1cccc(NC(=O)CCNC(=O)Cn2cnc3ccccc3c2=O)c1 | inactive: 83%
8 | CCn1c2ccccc2c2cc(CN3CCN(Cc4cccc(Cl)c4)CC3)ccc21 | active: -1%
9 | CCOc1ccccc1CNC(=O)c1ccc(-n2c(C)cc3c2CCC(C)C3)cc1 (stereo not drawn) | inactive: 90%
10 | COC(=O)c1ccccc1NC(=O)CCCn1nc(C)c2c(C)n(-c3ccccc3)nc2c1=O | inactive: 102%
11 | COc1ccc(CNC(=O)c2ccc3c(c2)nc2n3CCCCC2)cc1 | inactive: 89%
12 | Cc1ccc(NS(=O)(=O)c2ccc3c(c2)N(C)C(=O)CC(=O)N3C)cc1Cl | inactive: 72%
13 | Cc1ccc(-n2c(=O)c3ccc(C(=O)NCc4ccco4)cc3n(CC(=O)Nc3ccc(C)c(F)c3)c2=O)cc1 | inactive: 84%
14 | CCC1CN(C(=O)N2CCC(C(=O)N3CCN(c4ccccc4)CC3)CC2)c2ccccc2O1 (stereo not drawn) | inactive: 66%
15 | CCOC(=O)N1CCc2c(sc(NCc3ccc(N(CC)CC)cc3)c2C(=O)Nc2cc(OC)ccc2OC)C1 | inactive: 71%
16 | CCOc1ccc(-n2c(SCC(=O)NCc3ccccc3)nc3n[nH]c(C)c3c2=N)cc1 | inactive: 130%
17 | O=S(=O)(NCC(c1cccs1)S(=O)(=O)c1ccccc1)c1ccccc1 (stereo not drawn) | inactive: 115%
18 | N#CCCCN1C(=O)C(=C(C#N)C#N)c2ccccc21 | inactive: 75%
19 | CCOc1ccccc1NC(=O)c1c2c(nc3ccccc13)C(=O)N(C1CCCCC1)C2 | inactive: 55%
20 | CCOc1ccc(C(=O)Nc2ccc3oc(-c4ccc(C)cc4C)nc3c2)cc1Br | inactive: 61%
21 | C=CCNC(=O)C1CCN(S(=O)(=O)c2cccc(C(F)(F)F)c2)CC1 | inactive: 65%
22 | CCOc1ccc(NC(=O)Cn2c(=O)n(CCCCC(=O)NCCc3ccc(Cl)cc3)c(=O)c3ccccc32)cc1 | inactive: 111%

Row | SMILES | survival
23 | O=C(C1CCC(CNS(=O)(=O)c2ccc(Br)s2)CC1)N1CCN(c2ccc(F)cc2)CC1 (stereo not drawn) | inactive: 74%
24 | CCc1ccccc1NC(=O)CC1NCCNC1=O (stereo not drawn) | inactive: 78%
25 | CNC(=S)N1CCN(c2ccccc2F)CC1 | inactive: 107%
26 | CCCCC(=O)N1CCc2cc(OC)c(OC)cc2C1COc1ccc(C(=O)OCC)cc1 (stereo not drawn) | inactive: 70%
27 | Cc1cccc(C(=O)n2nc(C)c(S(=O)(=O)N3CCOCC3)c2C)c1 | inactive: 97%
28 | CCOc1ccccc1NS(=O)(=O)c1cc2[nH]c(=O)c(=O)[nH]c2cc1C | inactive: 71%
29 | COc1ccc(Cn2ccc3nc(C)c(C(=O)Nc4cc(OC)c(OC)c(OC)c4)cc3c2=O)cc1 | inactive: 99%
30 | CCOc1ccc(Sc2cc(C(=O)NCc3ccc(C)cc3)c3ccccc3n2)cc1 | inactive: 99%
31 | COCCCn1c(=N)c(C(=O)NC2CCCC2)cc2c(=O)n3cccc(C)c3nc21 | inactive: 139%
32 | Cc1cc(C)n(C(C)CC(=O)Nc2ccc(Cl)cc2C)n1 (stereo not drawn) | inactive: 75%
33 | COc1cccc(CN2C(=O)C3(SCC(=O)N3c3ccc(C)c(Cl)c3)c3ccccc32)c1 (stereo not drawn) | active: 52%
34 | CC1Cc2cc(S(=O)(=O)CCC(=O)Nc3ccccc3F)ccc2N1C(=O)C1CC1 (stereo not drawn) | inactive: 100%
35 | CCOc1ccc(NC(=O)CCc2c(C)nc3cc(-c4ccccc4OC)nn3c2C)cc1 | active: 53%
36 | COC(=O)c1ccc(CSc2c(C(C)C)cnc3c2c(=O)n(C)c(=O)n3C)cc1 | inactive: 90%
37 | Cc1c(NC(=O)Nc2ccc(Cl)c(Cl)c2)sc2nc3n(c(=O)c12)CCC(C)CC3 (stereo not drawn) | inactive: 93%
38 | Cc1ccc(N(C)S(=O)(=O)c2ccc3[nH]c(=O)ccc3c2)cc1 | inactive: 87%
39 | Cc1ccc(NC(=O)c2sc3ncnc(N(C)C4CCCCC4)c3c2C)c(C)c1 | inactive: 93%
40 | O=C(c1ccc(CS(=O)(=O)c2ccc(Br)cc2)o1)N1CCN(c2ccc(F)cc2)CC1 | inactive: 118%
41 | Nc1c(C(=O)NCc2cccs2)nnn1CC(=O)Nc1cccc(F)c1 | inactive: 92%
42 | COC(=O)c1scc(-c2ccc(C)cc2)c1S(=O)(=O)N1CCN(c2ccc(F)cc2)CC1 | active: -4%
43 | CCC1CCCCN1C(=O)c1c[nH]c2ccc(S(=O)(=O)Nc3cccc(OC)c3)cc2c1=O (stereo not drawn) | inactive: 91%
44 | O=C(NCc1ccco1)c1ccc2c(c1)N(Cc1ccccc1)C(=O)c1ccccc1S2 | inactive: 115%

Row | SMILES | survival
45 | O=C(NC1CCCCC1)c1ccc(CSc2nc3cccnc3n2Cc2cccc(F)c2)cc1 | inactive: 83%
46 | Cc1cc(C)cc(-n2ccn(CC(=O)c3ccc(F)cc3)c(=O)c2=O)c1 | inactive: 103%
47 | O=C(Nc1cccc(Br)c1)N1CCN2CCCCC2C1 (stereo not drawn) | inactive: 86%
48 | CC(=O)Nc1c(C(=O)O)oc2ccc(Cl)cc12 | active: 58%
49 | CCCNC(=O)Cn1nc(-c2ccc(OC)cc2)c2cnc3ccc(F)cc3c21 | inactive: 71%
50 | COc1ccc(OC)c(CNC(=O)c2cc3c(Cl)nc4ccccc4c3s2)c1 | inactive: 77%
51 | Cc1cccc(NC(=O)/C(C#N)=C/c2ccco2)c1 | inactive: 74%
52 | CCOc1ccc(-n2c(C)nc3cc(C(=O)NC4CCCC4)ccc32)cc1 | inactive: 76%
53 | COc1ccccc1CC(=O)Nc1ccc2nc(Nc3cccc(C(F)(F)F)c3)cc(C)c2c1 | inactive: 92%
54 | N#C/C(=C\c1ccc(OCc2ccc(Cl)cc2Cl)cc1)c1nc2ccccc2[nH]1 | inactive: 103%
55 | O=C(Nc1nc2n(n1)C(c1ccc(F)cc1)C=C(c1ccc(Cl)cc1)N2)c1ccc([N+](=O)[O-])cc1 (stereo not drawn) | inactive: 64%
56 | Cc1cccc(C2=Nc3ccccc3N=C(c3cc(Cl)ccc3O)C2)c1 | inactive: 52%
57 | Cc1oc2c(cc(NS(=O)(=O)c3ccc(C(C)C)cc3)c3ccccc32)c1C(=O)OCc1ccccc1 | inactive: 81%
58 | CSc1ccc(CNC(=O)Cn2nc(N3CCN(c4ccccc4)CC3)ccc2=O)cc1 | inactive: 76%
59 | Cc1ccccc1CNC(=O)C(=O)NCC(c1ccco1)S(=O)(=O)c1cccs1 (stereo not drawn) | inactive: 70%
60 | COc1cccc(NC(=O)CSc2nnc(-c3cccc(OC)c3)o2)c1 | inactive: 71%
61 | COc1ccccc1CNS(=O)(=O)Cc1ccccc1 | inactive: 70%
62 | CCc1ccc(NC(=O)CC2C(=O)NCCN2C(=O)c2ccc(F)cc2)cc1 (stereo not drawn) | inactive: 90%
63 | CCc1ccc(NC(=O)NCCc2c(C)nn(C)c2C)cc1 | inactive: 72%
64 | COc1ccc(S(=O)(=O)c2c(Nc3ccccc3F)sc(C(=O)c3cccc(OC)c3)c2N)cc1 | inactive: 97%
65 | COc1ccc(C(=O)Nc2ccccc2C(=O)NCc2ccco2)cc1 | inactive: 58%
66 | COc1cccc(C2CC(=O)Nc3c2ccc(C)c3C)c1OC (stereo not drawn) | inactive: 94%

Row | SMILES | survival
67 | CCOc1ccccc1CNC(=O)c1ccc(CS(=O)Cc2cccc(Cl)c2)o1 (stereo not drawn) | inactive: 79%
68 | CSc1ccc(C2C(C(=O)Nc3ccccc3)=C(C)Nc3nc4ccccc4n32)cc1 (stereo not drawn) | inactive: 63%
69 | Cc1cccc(NC(=O)CSc2nnc(NC(=O)Nc3ccccc3)s2)c1C | inactive: 93%
70 | COc1cc(OC)c(NC(=O)N2CCc3c([nH]c4ccccc34)C2c2ccccc2F)cc1Cl (stereo not drawn) | inactive: 91%
71 | O=C(Nc1ccccc1F)c1ccc(Cn2nc(N3CCN(c4ccccc4)CC3)ccc2=O)o1 | inactive: 83%
72 | Cc1cc(C)c(NC(=O)CN2C(=O)c3cccnc3Sc3ccccc32)c(C)c1 | inactive: 83%
73 | O=C(CCC(=O)N1CC2CCCN2c2ccccc21)NCc1ccc(F)cc1 (stereo not drawn) | active: 0%
74 | O=C(Nc1ccc2nc(SCC(=O)N3CCc4ccccc43)sc2c1)c1ccccc1 | inactive: 79%
75 | Cc1ccc2sc(-c3ccc(N)cc3)nc2c1 | active: 12%
76 | CCc1ccc(-n2c(=O)c3sc4ccccc4c3n(CC(=O)N(CC)Cc3ccccc3)c2=O)cc1 | inactive: 78%
77 | CCCCNC(=O)CSc1nc2nc(C)c(Cc3c(F)cccc3Cl)c(C)n2n1 | active: 31%
78 | CCC(=O)N1CCc2cc(CNC(=O)c3ccccc3C)ccc21 | inactive: 91%
79 | O=C(NC1CC(=O)N(c2cccc(F)c2)C1)c1ccc2c(c1)OCO2 (stereo not drawn) | inactive: 78%
80 | CCc1ccc(N(CC(=O)N2CCCCC2)S(C)(=O)=O)cc1 | inactive: 105%
81 | O=C(C1CCC(Cn2c(=O)c3sccc3n(Cc3ccccc3)c2=O)CC1)N1CCOCC1 (stereo not drawn) | inactive: 99%
82 | Cc1ccc(OCC(=O)Nc2ccccc2C(=O)OCc2cc(=O)n3ccsc3n2)cc1 | inactive: 81%
83 | CC(=O)c1ccc(NC(=O)COc2ccccc2-c2nc(-c3ccc(C)cc3)no2)cc1 | inactive: 57%
84 | Cc1ccc(-c2nnc(Nc3ccccc3O)c3ccccc23)cc1 | active: 49%
85 | Cc1ccc(Cl)cc1N1CCN(C(=O)c2cnn(C)c2C2CCN(C(=O)OC(C)(C)C)CC2)CC1 | inactive: 95%
86 | CCn1cc(/C=C(\NC(=O)c2ccc(C)cc2)C(=O)NCCCn2ccnc2)c2ccccc21 | inactive: 89%
87 | CCOC(=O)c1cc2c(=O)n3ccccc3nc2n(CC2CCCO2)c1=NC(=O)c1ccccc1C (stereo not drawn) | active: 43%
88 | CC(/C=N/NC(=O)c1ccco1)=C\c1ccco1 | inactive: 93%
